Results on 21 compounds are retold here after US8669255B2, “Substituted octahydropyrrolo[1,2-a]pyrazines as calcium channel blockers” (AbbVie Inc., priority 2011, dated 2014).

The target in the test is human Cav2.2 (Homo sapiens, UniProt Q00975). The test can be described thus: In vitro assessment of calcium channel activity using FLIPR (Ca2+ influx in IMR32 cells). To be noted: IMR32 cells endogenously expressing human Cav2.2; 60 minute pre-incubation; 2 μM nifedipine; depolarized with 80 mM KCl; average of at least two runs unless marked (*). The format is cell-based.
With `O=C(Cc1ccc(Cl)c(F)c1)N1CCN2C[C@H](Oc3cnc(C4CC4)cn3)C[C@H]2C1` [Example 143, 2-(4-chloro-3-fluorophenyl)-1-[(7R,8aS)-7-[(5-cyclopropylpyrazin-2-yl)-oxy]hexahydropyrrolo[1,2-a]pyrazin-2(1H)-yl]ethanone], the IC50 came to 1590 nM. Turning to `O=C(Cc1ccc(C(F)(F)F)cc1)N1CCN2C[C@H](Oc3cnc(C4CC4)cn3)C[C@H]2C1` [Example 144, 1-[(7R,8aS)-7-[(5-cyclopropylpyrazin-2-yl)oxy]hexahydropyrrolo[1,2-a]-pyrazin-2(1H)-yl]-2-[4-(trifluoromethyl)phenyl]ethanone], the IC50 was 720 nM. As to `O=C(C(O)c1cccc(C(F)(F)F)c1)N1CCN2C[C@H](Oc3cnc(C4CC4)cn3)C[C@H]2C1` (stereo partly drawn) [Example 145, 1-[(7R,8aS)-7-[(5-cyclopropylpyrazin-2-yl)oxy]hexahydropyrrolo[1,2-a]-pyrazin-2(1H)-yl]-2-hydroxy-2-[3-(trifluoromethyl)phenyl]ethanone], the IC50 worked out at 1220 nM. Consider `O=C(Cc1ccc(C(F)(F)F)c(F)c1)N1CCN2C[C@H](Oc3cnc(C4CC4)cn3)C[C@H]2C1` [Example 146, 1-[(7R,8aS)-7-[(5-cyclopropylpyrazin-2-yl)oxy]hexahydropyrrolo[1,2-a]pyrazin-2(1H)-yl]-2-[3-fluoro-4-(trifluoromethyl)phenyl]ethanone], for which the IC50 stood at 740 nM. In the case of `N#Cc1cccc(CC(=O)N2CCN3C[C@H](Oc4cnc(C5CC5)cn4)C[C@H]3C2)c1` [Example 147, 3-{2-[(7R,8aS)-7-[(5-cyclopropylpyrazin-2-yl)oxy]hexahydropyrrolo[1,2-a]pyrazin-2(1H)-yl]-2-oxoethyl}benzonitrile], the IC50 amounted to 8580 nM. The figure for `N#Cc1ccc(CC(=O)N2CCN3C[C@H](Oc4cnc(C5CC5)cn4)C[C@H]3C2)cc1C(F)(F)F` [Example 148, 4-{2-[(7R,8aS)-7-[(5-cyclopropylpyrazin-2-yl)oxy]hexahydropyrrolo[1,2-a]pyrazin-2(1H)-yl]-2-oxoethyl}-2-(trifluoromethyl)benzonitrile] is 490 nM; for `O=C(COc1ccc(OC(F)(F)F)cc1)N1CCN2C[C@H](Oc3cnc(C4CC4)cn3)C[C@H]2C1` [Example 149, 1-[(7R,8aS)-7-[(5-cyclopropylpyrazin-2-yl)oxy]hexahydropyrrolo[1,2-a]-pyrazin-2(1H)-yl]-2-[4-(trifluoromethoxy)phenoxy]ethanone] it is 1200 nM; for `O=C(COc1cccc(Cl)c1)N1CCN2C[C@H](Oc3cnc(C4CC4)cn3)C[C@H]2C1` [Example 150, 2-(3-chlorophenoxy)-1-[(7R,8aS)-7-[(5-cyclopropylpyrazin-2-yl)oxy]-hexahydropyrrolo[1,2-a]pyrazin-2(1H)-yl]ethanone] it is 1050 nM. `O=C(COc1ccc(F)cc1)N1CCN2C[C@H](Oc3cnc(C4CC4)cn3)C[C@H]2C1` [Example 151, 1-[(7R,8aS)-7-[(5-cyclopropylpyrazin-2-yl)oxy]hexahydropyrrolo[1,2-a]-pyrazin-2(1H)-yl]-2-(4-fluorophenoxy)ethanone]: the IC50 worked out at 3660 nM. The figure for `C=C(C)c1cnc(O[C@@H]2C[C@H]3CN(C(=O)Cc4cccc(C(F)(F)F)c4)CCN3C2)cn1` [Example 152, 1-[(7R,8aS)-7-{[5-(prop-1-en-2-yl)pyrazin-2-yl]oxy}hexahydropyrrolo[1,2-a]pyrazin-2(1H)-yl]-2-[3-(trifluoromethyl)phenyl]ethanone] is 1240 nM. In the case of `O=C(/C=C/c1cccc(C(F)(F)F)c1)N1CCN2C[C@H](Oc3cnc(C4CC4)cn3)C[C@H]2C1` [Example 153, (2E)-1-[(7R,8aS)-7-[(5-cyclopropylpyrazin-2-yl)oxy]hexahydropyrrolo[1,2-a]pyrazin-2(1H)-yl]-3-[3-(trifluoromethyl)phenyl]prop-2-en-1-one], the half-maximal inhibitory concentration (IC50) worked out at 1760 nM.

In the case of `O=C(/C=C/c1ccc(F)c(C(F)(F)F)c1)N1CCN2C[C@H](Oc3cnc(C4CC4)cn3)C[C@H]2C1` [Example 154, (2E)-1-[(7R,8aS)-7-[(5-cyclopropylpyrazin-2-yl)oxy]hexahydropyrrolo[1,2-a]pyrazin-2(1H)-yl]-3-[4-fluoro-3-(trifluoromethyl)phenyl]prop-2-en-1-one], the IC50 was found to be 750 nM. For the compound `O=C(COc1cccc(C(F)(F)F)c1)N1CCN2C[C@H](Oc3cnc(C4CC4)cn3)C[C@H]2C1` [Example 155, 1-[(7R,8aS)-7-[(5-cyclopropylpyrazin-2-yl)oxy]hexahydropyrrolo[1,2-a]-pyrazin-2(1H)-yl]-2-[3-(trifluoromethyl)phenoxy]ethanone], the IC50 came out at 370 nM. Take `CC(Oc1cccc(C(F)(F)F)c1)C(=O)N1CCN2C[C@H](Oc3cnc(C4CC4)cn3)C[C@H]2C1` (stereo partly drawn) [Example 156, 1-[(7R,8aS)-7-[(5-cyclopropylpyrazin-2-yl)oxy]hexahydropyrrolo[1,2-a]-pyrazin-2(1H)-yl]-2-[3-(trifluoromethyl)phenoxy]propan-1-one]: the IC50 is 330 nM. For the compound `CC(C)(Oc1cccc(C(F)(F)F)c1)C(=O)N1CCN2C[C@H](Oc3cnc(C4CC4)cn3)C[C@H]2C1` [Example 157, 1-[(7R,8aS)-7-[(5-cyclopropylpyrazin-2-yl)oxy]hexahydropyrrolo[1,2-a]-pyrazin-2(1H)-yl]-2-methyl-2-[3-(trifluoromethyl)phenoxy]propan-1-one], the IC50 came out at 500 nM. Consider `O=C(C(O)c1ccc(C(F)(F)F)cc1)N1CCN2C[C@H](Oc3cnc(C4CC4)cn3)C[C@H]2C1` (stereo partly drawn) [Example 158, 1-[(7R,8aS)-7-[(5-cyclopropylpyrazin-2-yl)oxy]hexahydropyrrolo[1,2-a]-pyrazin-2(1H)-yl]-2-hydroxy-2-[4-(trifluoromethyl)phenyl]ethanone], for which the IC50 is 2220 nM.

Consider `O=C([C@H](O)c1cccc(C(F)(F)F)c1)N1CCN2C[C@H](Oc3cnc(C4CC4)cn3)C[C@H]2C1` [Example 159, (2R)-1-[(7R,8aS)-7-[(5-cyclopropylpyrazin-2-yl)oxy]hexahydropyrrolo[1,2-a]pyrazin-2(1H)-yl]-2-hydroxy-2-[3-(trifluoromethyl)phenyl]ethanone], for which the IC50 stood at 3510 nM. `O=C([C@@H](O)c1cccc(C(F)(F)F)c1)N1CCN2C[C@H](Oc3cnc(C4CC4)cn3)C[C@H]2C1` [Example 160, (2S)-1-[(7R,8aS)-7-[(5-cyclopropylpyrazin-2-yl)oxy]hexahydropyrrolo[1,2-a]pyrazin-2(1H)-yl]-2-hydroxy-2-[3-(trifluoromethyl)phenyl]ethanone]: the IC50 worked out at 1520 nM. As to `CC(C)c1cnc(O[C@@H]2C[C@H]3CN(C(=O)Cc4cccc(C(F)(F)F)c4)CCN3C2)cn1` [Example 161, 1-[(7R,8aS)-7-[(5-isopropylpyrazin-2-yl)oxy]hexahydropyrrolo[1,2-a]-pyrazin-2(1H)-yl]-2-[3-(trifluoromethyl)phenyl]ethanone], the IC50 stood at 1310 nM. The figure for `COC(C(=O)N1CCN2C[C@H](Oc3cnc(C4CC4)cn3)C[C@H]2C1)c1cccc(C(F)(F)F)c1` (stereo partly drawn) [Example 162, 1-[(7R,8aS)-7-[(5-cyclopropylpyrazin-2-yl)oxy]hexahydropyrrolo[1,2-a]-pyrazin-2(1H)-yl]-2-methoxy-2-[3-(trifluoromethyl)phenyl]ethanone] is 1110 nM; for `O=C1[C@@H]2C[C@@H](Oc3cnc(C4CC4)cn3)CN2CCN1Cc1cccc(C(F)(F)F)c1` [Example 163, (7R,8aS)-7-[(5-cyclopropylpyrazin-2-yl)oxy]-2-[3-(trifluoromethyl)benzyl]-hexahydropyrrolo[1,2-a]pyrazin-1(2H)-one] it is 4880 nM.

As usually defined, the IC50 is the concentration that inhibits the measured activity by half.
